# Assay results from the supplement of paper PMC8728848.
# The list shows a part of the results.
# B1: Sebin1 (Coprinopsis cinerea), A8PEE3 (protein)
# chain: MTSPFYAHIHNVQDDNTWRFTLIFANRATADEWWRAISEAPANTSIAKSITRVTPQYYTHDVNIWNIWNFFADGNIKSISERFRGRLFIVLENDRGGRGITVIPPVPIVDHVSGNWFYIRSKTAPHLFWYYDERRSSIYASKEKRTRFKISIRNPSSQTPKNAIMINTDDVTIHIKENLYVGVDNNLGHIIPTRAYRTFKFGELESGAIAGFDVVENIEERCSSTFDGASLSISGPDSSSPGEPWELV
# Columns and labels:
# Test in all cases: glycan array binding signal (z-score within array); higher = stronger binding
# Settings in all cases: glycan notation: IUPAC condensed, linker removed
# [1] = target: Neu5Ac(a2-3)Gal(b1-4)GlcNAc(b1-2)Man(a1-3)[Neu5Ac(a2-6)Gal(b1-4)GlcNAc(b1-2)Man(a1-6)]Man(b1-4)GlcNAc(b1-4)GlcNAc
# Method in brief: (§1)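 The binding signal is a Z-score computed within each array. Data were drawn from 3228 arrays in the Consortium for Functional Glycomics database, restricted to those with a known protein sequence. Scores were averaged over arrays of the same protein sequence at different concentrations or buffers, and over linkers, and negative values can be taken as non-binding.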
# [2] = target: Neu5Ac(a2-3)Gal(b1-4)GlcNAc(b1-2)[Neu5Ac(a2-3)Gal(b1-4)GlcNAc(b1-4)]Man(a1-3)[GlcNAc(b1-4)][Neu5Ac(a2-3)Gal(b1-4)GlcNAc(b1-2)[Neu5Ac(a2-3)Gal(b1-4)GlcNAc(b1-6)]Man(a1-6)]Man(b1-4)GlcNAc(b1-4)GlcNAc
# Method in brief: as §1
# [3] = target: Neu5Ac(a2-3)Gal(b1-4)GlcNAc(b1-2)[Neu5Ac(a2-3)Gal(b1-4)GlcNAc(b1-4)]Man(a1-3)[GlcNAc(b1-4)][Neu5Ac(a2-3)Gal(b1-4)GlcNAc(b1-4)Man(a1-6)]Man(b1-4)GlcNAc(b1-4)GlcNAc
# Method in brief: as §1
# [4] = target: Neu5Ac(a2-3)Gal(b1-4)GlcNAc(b1-2)[Neu5Ac(a2-3)Gal(b1-4)GlcNAc(b1-6)]Man(a1-6)[Neu5Ac(a2-3)Gal(b1-4)GlcNAc(b1-2)Man(a1-3)][GlcNAc(b1-4)]Man(b1-4)GlcNAc(b1-4)GlcNAc
# Method in brief: as §1
# [5] = target: Neu5Ac(a2-3)Gal(b1-4)GlcNAc(b1-3)Gal
# Method in brief: as §1
# [6] = target: Neu5Ac(a2-3)Gal(b1-4)GlcNAc(b1-3)Gal(b1-3)GlcNAc
# Method in brief: as §1
# [7] = target: Neu5Ac(a2-3)Gal(b1-4)GlcNAc(b1-3)Gal(b1-4)GlcNAc
# Method in brief: as §1
# [8] = target: Neu5Ac(a2-3)Gal(b1-4)GlcNAc(b1-3)Gal(b1-4)GlcNAc(b1-2)Man(a1-3)[Neu5Ac(a2-3)Gal(b1-4)GlcNAc(b1-3)Gal(b1-4)GlcNAc(b1-2)Man(a1-6)]Man(b1-4)GlcNAc(b1-4)GlcNAc
# Method in brief: as §1
# [9] = target: Neu5Ac(a2-3)Gal(b1-4)GlcNAc(b1-3)Gal(b1-4)GlcNAc(b1-3)Gal(b1-4)GlcNAc
# Method in brief: as §1
# [10] = target: Neu5Ac(a2-3)Gal(b1-4)GlcNAc(b1-3)Gal(b1-4)GlcNAc(b1-3)Gal(b1-4)GlcNAc(b1-2)Man(a1-3)[Neu5Ac(a2-3)Gal(b1-4)GlcNAc(b1-3)Gal(b1-4)GlcNAc(b1-3)Gal(b1-4)GlcNAc(b1-2)Man(a1-6)]GalNAc
# Method in brief: as §1
# [11] = target: Neu5Ac(a2-3)Gal(b1-4)GlcNAc(b1-3)Gal(b1-4)GlcNAc(b1-3)GalNAc
# Method in brief: as §1
# [12] = target: Neu5Ac(a2-3)Gal(b1-4)GlcNAc(b1-3)Gal(b1-4)GlcNAc(b1-3)[Neu5Ac(a2-3)Gal(b1-4)GlcNAc(b1-3)Gal(b1-4)GlcNAc(b1-6)]GalNAc
# Method in brief: as §1
# [13] = target: Neu5Ac(a2-3)Gal(b1-4)GlcNAc(b1-3)Gal(b1-4)GlcNAc(b1-6)[Gal(b1-3)]GalNAc
# Method in brief: as §1
# [14] = target: Neu5Ac(a2-3)Gal(b1-4)GlcNAc(b1-3)Gal(b1-4)[Fuc(a1-3)]GlcNAc
# Method in brief: as §1
# [15] = target: Neu5Ac(a2-3)Gal(b1-4)GlcNAc(b1-3)GalNAc
# Method in brief: as §1
# [16] = target: Neu5Ac(a2-3)Gal(b1-4)GlcNAc(b1-3)[Neu5Ac(a2-3)Gal(b1-4)GlcNAc(b1-6)]GalNAc
# Method in brief: as §1
# [17] = target: Neu5Ac(a2-3)Gal(b1-4)GlcNAc(b1-6)GalNAc
# Method in brief: as §1
# [18] = target: Neu5Ac(a2-3)Gal(b1-4)GlcNAc(b1-6)[Gal(b1-3)]GalNAc
# Method in brief: as §1
# [19] = target: Neu5Ac(a2-3)Gal(b1-4)GlcNAc(b1-6)[Neu5Ac(a2-3)Gal(b1-3)]GalNAc
# Method in brief: as §1
# [20] = target: Neu5Ac(a2-3)Gal(b1-4)GlcNAc6S
# Method in brief: as §1
# [21] = target: Neu5Ac(a2-3)Gal(b1-4)[Fuc(a1-3)]GlcNAc
# Method in brief: as §1
# [22] = target: Neu5Ac(a2-3)Gal(b1-4)[Fuc(a1-3)]GlcNAc(b1-2)Man
# Method in brief: as §1
# [23] = target: Neu5Ac(a2-3)Gal(b1-4)[Fuc(a1-3)]GlcNAc(b1-3)Gal
# Method in brief: as §1
# [24] = target: Neu5Ac(a2-3)Gal(b1-4)[Fuc(a1-3)]GlcNAc(b1-3)Gal(b1-4)GlcNAc
# Method in brief: as §1
# [25] = target: Neu5Ac(a2-3)Gal(b1-4)[Fuc(a1-3)]GlcNAc(b1-3)Gal(b1-4)[Fuc(a1-3)]GlcNAc(b1-3)Gal(b1-4)[Fuc(a1-3)]GlcNAc
# Method in brief: as §1
# [26] = target: Neu5Ac(a2-3)Gal(b1-4)[Fuc(a1-3)]GlcNAc(b1-3)GalNAc
# Method in brief: as §1
# [27] = target: Neu5Ac(a2-3)Gal(b1-4)[Fuc(a1-3)]GlcNAc(b1-6)[Gal(b1-3)]GalNAc
# Method in brief: as §1
# [28] = target: Neu5Ac(a2-3)Gal(b1-4)[Fuc(a1-3)]GlcNAc(b1-6)[Neu5Ac(a2-3)Gal(b1-3)]GalNAc
# Method in brief: as §1
# [29] = target: Neu5Ac(a2-3)Gal(b1-4)[Fuc(a1-3)]GlcNAc6S
# Method in brief: as §1
# [30] = target: Neu5Ac(a2-3)Gal6S(b1-4)GlcNAc
# Method in brief: as §1
# [31] = target: Neu5Ac(a2-3)Gal6S(b1-4)[Fuc(a1-3)]GlcNAc
# Method in brief: as §1
# [32] = target: Neu5Ac(a2-3)GalNAc
# Method in brief: as §1
# [33] = target: Neu5Ac(a2-3)GalNAc(b1-4)GlcNAc
# Method in brief: as §1
# [34] = target: Neu5Ac(a2-3)[GalNAc(b1-4)]Gal(b1-4)Glc
# Method in brief: as §1
# [35] = target: Neu5Ac(a2-3)[GalNAc(b1-4)]Gal(b1-4)GlcNAc
# Method in brief: as §1
# [36] = target: Neu5Ac(a2-3)[GalNAc(b1-4)]Gal(b1-4)GlcNAc(b1-3)GalNAc
# Method in brief: as §1
# [37] = target: Neu5Ac(a2-3)[Neu5Ac(a2-6)]GalNAc
# Method in brief: as §1
binder,measurement,setting,value
B1,glycan array binding signal (z-score),[1],0.208
same,glycan array binding signal (z-score),[2],-0.063
same,glycan array binding signal (z-score),[3],-0.161
same,glycan array binding signal (z-score),[4],-0.093
same,glycan array binding signal (z-score),[5],-0.176
same,glycan array binding signal (z-score),[6],-0.415
same,glycan array binding signal (z-score),[7],-0.525
same,glycan array binding signal (z-score),[8],-0.107
same,glycan array binding signal (z-score),[9],-0.018
same,glycan array binding signal (z-score),[10],-0.305
same,glycan array binding signal (z-score),[11],-0.167
same,glycan array binding signal (z-score),[12],0.416
same,glycan array binding signal (z-score),[13],0.023
same,glycan array binding signal (z-score),[14],0.176
same,glycan array binding signal (z-score),[15],-0.212
same,glycan array binding signal (z-score),[16],-0.611
same,glycan array binding signal (z-score),[17],0.774
same,glycan array binding signal (z-score),[18],2.49
same,glycan array binding signal (z-score),[19],-0.249
same,glycan array binding signal (z-score),[20],-0.472
same,glycan array binding signal (z-score),[21],-0.207
same,glycan array binding signal (z-score),[22],0.27
same,glycan array binding signal (z-score),[23],0.029
same,glycan array binding signal (z-score),[24],-0.611
same,glycan array binding signal (z-score),[25],0.043
same,glycan array binding signal (z-score),[26],-0.864
same,glycan array binding signal (z-score),[27],0.053
same,glycan array binding signal (z-score),[28],0.95
same,glycan array binding signal (z-score),[29],-0.366
same,glycan array binding signal (z-score),[30],0.113
same,glycan array binding signal (z-score),[31],-0.3
same,glycan array binding signal (z-score),[32],-0.458
same,glycan array binding signal (z-score),[33],-0.285
same,glycan array binding signal (z-score),[34],-0.266
same,glycan array binding signal (z-score),[35],-0.391
same,glycan array binding signal (z-score),[36],0.337
same,glycan array binding signal (z-score),[37],-0.368
